Patent publication US20260374838 (published 2026)

Target: T1, human CD200R (human, UniProt Q8TD46)
T1 chain: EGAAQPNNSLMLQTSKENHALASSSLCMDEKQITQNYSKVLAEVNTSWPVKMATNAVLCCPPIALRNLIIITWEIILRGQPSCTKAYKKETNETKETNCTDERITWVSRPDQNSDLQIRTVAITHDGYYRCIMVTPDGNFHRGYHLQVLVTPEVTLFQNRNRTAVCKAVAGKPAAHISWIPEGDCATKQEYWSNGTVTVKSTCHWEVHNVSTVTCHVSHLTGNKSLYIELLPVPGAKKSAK
Assay: SPR, 25C

B1: ARQ-234 (antibody)
chain: QVQVVTQDEREQLYTPASLKCSLQNAQEALIVTWQKKKAVSPENMVTFSENHGVVIQPAYKDKINITQLGLQNSTITFWNITLEDEGCYMCLFNTFGFGYYSGTACLTVYVQPIVSLHYKFSEDHLNITCSATARPAPMVFWKVPRSGIENSTVTLSHPNGTTSVTSILHIKDPKNQVGKEVICQVLHLGTVTDFKQTVNKGPP[human IgG4 Fc with changes not printed]
  Kd: 2.11 nM
